Measurements from PubChem BioAssay AID1508624 (National Center for Advancing Translational Sciences (NCATS), 2021).
The campaign covered roughly 48,000 compounds. About 120 (0.25%) were called active. Another 4% or so got no clear call; they are omitted. The call rests on the fitted dose curve; in most records, active means well fitted activation curve with a large enough effect; inconclusive means small, poorly fitted or top-dose-only effect, or another doubt; inactive means no such curve, though single readings can be large or run the other way. Some of the results follow.

Assay: Primary qHTS for Identification of Small Molecule Activators of Huntingtin-Antisense Promoter Activity; further: nearly all actives have a fitted effect of over 55% in size
Conditions: HEK293 HTT-AS promoter firefly luciferase reporter, 24 h; series mostly up to 57.5 µM; activity change, positive = activation: at the top concentration
Summary of the method: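 HEK293 cells carrying firefly luciferase reporters were seeded at 2,500 per well in Opti-MEM and cultured for 24 h. They were then treated with compounds at up to 57.5 uM final for 24 h at 37 degrees C before Dual-Glo luminescence readout.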

Activity change, positive = activation, inactive:
COc1cc2c(C(=O)N3CCN(c4cc(Cl)ccc4C)CC3)cn(CC(C)C)c(=O)c2cc1OC -32.2%
COc1ccc(S(=O)(=O)NCCc2sc(-c3cccc(F)c3)nc2C)cc1 -21.9%
O=C(Nc1ccccc1F)C(Cc1ccccc1)N1Cc2ccccc2C1=O (centres undefined) 1.65%
CC(C)c1ccc(NC(=O)c2ccc(F)c(S(=O)(=O)N3CCN(c4ccccc4F)CC3)c2)cc1 -12.5%
CCCOc1ccc(-c2cccc(NS(=O)(=O)c3ccc(CC)cc3)c2)nn1 -28.5%
COc1ccc(NC(=O)CN2CCN(c3ccccc3F)CC2)c(OC)c1 -10%
CCC1=C(c2ccc(C)cc2)S(=O)(=O)N=C1N1CCC(C(=O)NCc2ccc(C)cc2)CC1 -37.9%
c1cnc(N2CCN(Cc3ccc4c(c3)OCO4)CC2)nc1 -2.71%
Cc1ccc(NC(=O)CSc2nccn2Cc2ccc3c(c2)OCO3)c(C)c1 8.37%
Cc1ccc(C(=O)/C=C/c2cn(CC(O)CN3CCCCCC3)c3ccccc23)cc1 (centres undefined) -21.4%
Cc1cc(C)c(NC(=O)CN(C)S(=O)(=O)c2ccc3c(c2)c(=O)n(C)c(=O)n3C)c(C)c1 -11.9%
CCCSCCCNC(=O)CN1C(=O)CCn2nc(-c3cn(C)c4ccccc34)cc21 -1.92%
CCC(C)NC(=O)CCC(=O)NNc1nc2ccccc2c2nc(C)nn12 (centres undefined) -3.9%
Cc1ccc(-c2nn3c(=O)cc(CN4CCN(C(=O)c5ccc(C(C)(C)C)cc5)CC4)nc3s2)cc1 -10.9%
CCc1ccc(S(=O)(=O)n2ccnc2)cc1 -6.66%
O=C(Nc1ccc(F)cc1F)N1CCc2c(sc3c2CCCC3)C1c1ccc(F)cc1 (centres undefined) -4.75%
COc1cc(NS(=O)(=O)c2ccc(NC(=O)c3ccc(OC)c(Br)c3)cc2)nc(OC)n1 -11.9%
Cn1c(=O)c2c(n3c4ccccc4nc13)NC(=O)CC2c1cccc(Cl)c1 (centres undefined) -10.1%
COc1ccc(Cl)cc1NC(=O)Cn1nnc(C(=O)NCc2ccc3c(c2)OCO3)c1N -38.6%
COC(=O)c1sccc1S(=O)(=O)N1CCN(c2ccc(C(C)=O)cc2)CC1 -17.7%
C[C@](N)(Cc1ccc(O)c(O)c1)C(=O)O
Cc1ccc(Cn2c(CN3CCC(C(=O)NCC(C)c4ccccc4)CC3)cc3ccccc32)cc1 (centres undefined) -29.7%
Cc1ccc(C)c(N2CCN(C(=O)C3CCCN(S(=O)(=O)c4cccc5nonc45)C3)CC2)c1 (centres undefined) -37.2%
CCOCCc1nn2c(=O)cc(COC(=O)c3cccc(C)c3)nc2s1 -5.73%
Cc1ccc(-c2cc(C(=O)Nc3c(C(=O)c4ccc(C)c(F)c4)oc4ccccc34)no2)cc1 -1.12%
CCOC(=O)c1c(NC(=O)CSc2cn(CCNC(=O)c3c(F)cccc3F)c3ccccc23)sc2c1CCCC2 -20.9%
COc1ccc(S(=O)(=O)NCCc2sc(-c3ccccc3)nc2C)cc1F -15.5%
Cc1ccc(Cl)cc1N1CCN(S(=O)(=O)c2ccc(-c3cnc(C4CC4)o3)cc2)CC1 -7.38%
CC(=O)c1ccc(NC(=O)c2cc(C3CC3)nc3c2c(C)nn3-c2ccc(C)cc2)cc1 -6.73%
CC(=O)Nc1cccc(NC(=O)Cc2csc(COc3cccc(C)c3)n2)c1 -17.4%
COc1ccccc1N1CCN(S(=O)(=O)c2ccc(-n3cnnn3)cc2)CC1 -23.7%
CCOC(=O)N1CCc2c(sc3c2c(=O)n(-c2ccc(CC)cc2)c(=O)n3Cc2cccc(OC)c2)C1 -12.4%
CCc1ccc(S(=O)(=O)N(C(C)=O)c2ccc3oc4c(c3c2)CCCC4)cc1 -38.2%
CCOc1ccc(C(=O)Nc2ccc3c(c2)N(C(C)=O)CCC3)cc1OCC -69.4%
COc1ccc(NS(=O)(=O)c2ccc3c(c2)NC(=O)CCS3)c(OC)c1 -23.3%
CCC(C(=O)Nc1cc(C)ccc1OC)n1nnc(C(=O)OC)c1C(=O)OC (centres undefined) -1.36%
CCOc1ccc(C2c3c(oc4cc(C)c(C)cc4c3=O)C(=O)N2c2ccccn2)cc1 (centres undefined) 5.83%
Cc1ccc(-n2nc3c(N4CCC(C(=O)N(C)Cc5ccccc5)CC4)nnc(C)c3c2C)cc1 -3.77%
Cc1ccc(C)c(S(=O)(=O)n2nc(C)c(S(=O)(=O)N3CCC(C)CC3)c2C)c1 -6.04%
CC(=O)N1c2ccc(S(=O)(=O)NCC3CCC(C(=O)Nc4cc(C)cc(C)c4)CC3)cc2CC1C (centres undefined) -34.8%
CC(=O)Nc1ccc(S(=O)(=O)Nc2nc3n(n2)C(c2ccccc2)C=C(c2ccc(Cl)cc2)N3)cc1 (centres undefined) -4.12%
CN(C)c1ccc(CN(Cc2ccco2)C(=O)c2ccc(F)cc2)cc1 -20.2%
COc1ccccc1CNC(=O)CCC(=O)N1Cc2ccccc2Oc2ncccc21 14.4%
COc1ccc(-c2nc3sc(CCNS(=O)(=O)c4c(C)cc(C)cc4C)c(C)n3n2)cc1 -12.6%
COc1cc(Cl)c(C)cc1Nc1nnc(-n2nc(C)cc2C)c2ccccc12 -9.31%
CCc1cccc(NC(=O)C(Cc2ccccc2)NS(=O)(=O)c2ccc3c(c2)c(=O)n(C)c(=O)n3C)c1 (centres undefined) -22.7%
COc1cccc(N2CCN(C(=O)c3c4c(nc5ccccc35)C(=O)N(C3CCCCC3)C4)CC2)c1 -23.7%
Cc1cc(SCC(=O)Nc2nsc(-c3ccc(C(C)(C)C)cc3)n2)nc2ccccc12 -2.11%
N[C@H]1CN(c2c(F)cc3c(=O)c(C(=O)O)cn(C4C[C@@H]4F)c3c2Cl)CC12CC2 (some centres undefined) -10.8%
COc1cccc(NC(=O)C2CCCN2S(=O)(=O)c2ccc3nc(-c4ccccc4)[nH]c3c2)c1 (centres undefined) -36.2%
COc1ccc(OCc2nc(C#N)c(NCc3ccccc3Cl)o2)cc1 -18.2%
COc1ccc(CCC(=O)NCc2nc3cccnc3n2Cc2ccc(OC)cc2)cc1 -9.28%
CCOC(=O)c1c(NC(=O)CS(=O)(=O)c2ccc(Cl)cc2)sc2c1CCCC2 -3.62%
CNC(=O)C1CCN(C(=O)N2CC(C)Oc3ccc(C)cc32)CC1 (centres undefined) -8.1%
CCOC(=O)c1c(NC(=O)c2cc(=O)c3c(C)cc(C)cc3o2)sc2c1CCC2 -4.04%
COc1ccc(NC(=O)C2CCN(c3nc(-c4ccc(OC)c(OC)c4)no3)CC2)cc1Cl -7.83%
Cc1ccccc1CNC(=O)C1CCCN(c2nnc(-n3c(C)ccc3C)s2)C1 (centres undefined) -13.1%
O=C(O)CCNC(=O)c1ccc(N=Nc2ccc(O)c(C(=O)O)c2)cc1
COc1ccccc1N(C)C(=O)Cn1c(=O)oc2cc(S(=O)(=O)N3CCCC3)ccc21 -11.8%
Cn1cc(S(=O)(=O)N2CCCCCC2)cc1C(=O)N1CCN(c2ccc(Cl)cc2)CC1 -32.6%
CCOC(=O)c1cc(-c2ccccc2)n(CCCC(=O)Nc2ccc(C)c(C)c2)c1C -36.3%
Cn1c(=O)c2c(ncn2CC(=O)Nc2cc(Cl)cc(Cl)c2)n(C)c1=O -45.5%
CCOC(=O)c1c(C)oc2ncnc(N3CCN(c4cccc(Cl)c4)CC3)c12 -40%
CCOC(=O)c1c(C)[nH]c(C)c1S(=O)(=O)N1CCN(c2ccccc2OC)CC1 -16.9%
COc1ccc(Cl)cc1NC(=O)CSc1nc2ccccc2nc1N1CCCCC1 -17.3%
COc1ccc(C2CC(=O)c3cnc4c(-c5ccccc5)c(C)nn4c3C2)c(OC)c1 (centres undefined) 0.0523%
CCCCNC(=O)CCCn1c(=O)c2ccccc2n(Cc2ccc(Cl)cc2)c1=O -33.3%
COc1ccc2c(c1)c1c(c(=O)n(-c3ccc(OC)c(OC)c3)c(=O)n1Cc1ccc(C)cc1)n2C -9.06%
COc1ccccc1CNC(=O)CCCn1c(=O)c2cccn2c2ccccc21 -10.4%
CC(C)(C)OC(=O)N1CCC(c2c(C(=O)N3CCOCC3)cnn2-c2ccccc2Cl)CC1 -7.32%
CCn1c(C(=O)N(C2CC2)C2CC2)cc2c3c(ncn3C)c(Nc3cc(C)n(C)n3)nc21 -10.7%
CCc1c(C)nc2nncn2c1Nc1cccc(C)c1 -22.5%
COc1ccc(-c2nc(SCC(=O)Nc3cccc(C(C)=O)c3)n[nH]2)cc1 -10.2%
Fc1ccc(-c2noc3ncnc(N4CCCCC4)c23)cc1 -46.3%
O=C(Cc1ccccc1)Nc1cc(-c2nc3cc(Cl)ccc3o2)ccc1Cl -3.1%
N#Cc1ccccc1S(=O)(=O)N1CCC(Oc2ccc(-n3cnnn3)cc2)CC1 -25.8%
COc1ccc(Cc2nc3ccc(C(=O)NCc4cc(Br)ccc4OC)cc3o2)cc1 -14.1%
CCCN1CCCC[C@H]1C(=O)Nc1c(C)cccc1C -4.08%
COc1ccc(CCCc2nnc(SCC(=O)Nc3ccccc3F)o2)cc1C 6.29% [at 11.5 µM, percent change from vehicle, -100% = no light]
COc1cc(C(=O)NCc2ccc(OCCN(C)C)cc2)cc(OC)c1OC -15.6%
COc1cccc(N(Cc2nnc3n2CCCCC3)C(=O)Nc2cccc(Cl)c2)c1 -22.7%
CCOCCCNC(=O)CN1C(=O)c2c(c3ccccc3n2C)C1c1ccc(OC)cc1 (centres undefined) -3.68%
O=C(Cc1csc2nc(-c3ccccc3)cn12)NCc1ccc(F)cc1 -6.46%
CCOc1ccccc1NC(=O)N1CCCn2nc(C)cc21 -11.2%
O=C(NCC(c1cccs1)S(=O)(=O)c1cccs1)c1ccc(C(F)(F)F)cc1 (centres undefined) -34.9%
COc1ccc(N(C(=O)COc2ccc(Br)cc2)S(=O)(=O)c2ccc(C)cc2)cc1 -25.4%
CCOC(=O)c1c(S(=O)(=O)N2CCCC(C(=O)Nc3ncccc3C)C2)c(C)n(C)c1C (centres undefined) 0%
O=C(OCc1ccccc1Cl)c1ccc(-c2nnn(Cc3ccccc3Cl)n2)cc1 -4.81%
CC(C)(OCc1nn(Cc2ccccc2)c2ccccc12)C(=O)O -6.44%
Cc1ccc(S(=O)(=O)N[C@@H](Cc2ccccc2)C(=O)CCl)cc1 -30.4%
COc1cc(/C=C/c2nc(C#N)c(NC(C)c3ccccc3)o2)cc(OC)c1OC (centres undefined) -40.2%
COc1cc(NCc2ccc3nc(N)nc(N)c3c2C)cc(OC)c1OC
O=C(CCCCn1c(=O)c2ccccc2n(CC(=O)Nc2cccc(F)c2)c1=O)NCc1ccccc1Cl -3.27%
CCOc1ccc(CNC(=O)Cn2c(=O)c3cccn3c3ccc(F)cc32)cc1OC -16.3%
